# In all, about 1,300 compounds went through this assay and about 150 (12%) were called active. Another 30% or so got no clear call; they are omitted. Calls follow the shape of the dose curve; as a rule, active = well fitted cell-killing curve with a large enough effect; inconclusive = small, poorly fitted or top-dose-only effect, or effect the other way; inactive = flat fitted curve, though single readings scatter. The list shows a part of the results, in another mix than the full data.
# Assay: qHTS of small molecules that selectively kill Giardia lamblia: Hit Validation in HepG2 cytotox;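 also: compound exposure lasted overnight at 37 deg C; nearly all actives have a fitted effect of over 55% in size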;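 as to activity change, negative = cytotoxicity: viability measured as cellular ATP by ATPLite luminescence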
# Conditions: cell viability; Potency: HepG2 cytotoxicity; series mostly up to 38.3 µM; activity change, negative = cytotoxicity: at the top concentration
# From the text: Giardia lamblia is a human pathogen afflicting impoverished nations, and the most common cause of outbreaks of diarrhea in the United States. Giardia has been classified by the CDC as a category B bioterrorism organism. The favored anti giardiasis drugs in the US are metronidazole or tinidazole, compounds that have undesirable side effects. Moreover, increasing resistance to drug regimes and recurrence are a concern. It is thus clear that alternative drug treatments are needed.
# In a collaboration between the University of Maryland, College Park and the NIH Chemical Genomics Center, a bioluminescence Giardia viability assay based on the trophozoites' ATP content was developed. This assay is suitable for high throughput screening, and miniaturized the assay for compound screening in 1536-well plates. The goal of the project is to screen the Molecular Libraries Small Molecule Repository (MLSMR) for compounds that selectively kill Giardia trophozoites. This counterscreen looks at the toxicity of the compounds against the human HepG2 cell line.
# NIH Chemical Genomics Center [NCGC]
# NIH Molecular Libraries Probe Centers Network [MLPCN]
# Assay Submitter (PI): Osnat Herzberg, University of Maryland, College Park, MD.
# 4 uL of HepG2 cells ae dispensed into white 1536-well plates. They are incubated overnight at 37 deg C and then 23 nL of compounds are transferred to the wells with a pintool. Plates are incubated overnight at 37 deg C. 2 uL of ATPLite is added and the plates are incubated for 15 min at room temperature before they are read on the ViewLux for luminiescence.
# % is scaled to controls: 0 for no effect and ±100 for the full control effect; potency is read from the fitted curve at half-maximal effect.
SMILES,"activity change, negative = cytotoxicity",Potency
Cc1ccc(C(CC(=O)O)NC(=O)c2ccc(S(=O)(=O)N3CC(C)OC(C)C3)cc2)cc1 (centres undefined),inactive: 16%,–
Cc1c[nH]c(=O)c([N+](=O)[O-])c1,inactive: 10.6%,–
C=CCOC(=O)C1=C(C)NC(=O)NC1c1ccc(O)cc1 (centres undefined),inactive: 13.7%,–
COc1ccc(-n2c(C)cc(C(=O)COc3ccc(C)nc3[N+](=O)[O-])c2C)cc1,inactive: 0.437%,–
COC(=O)[C@]1(Cc2ccccc2)N[C@H](CN(C)C(=O)c2ccccc2)[C@@H]2C(=O)N(C)C(=O)[C@@H]21,inactive: 1.6%,–
COc1ccc(NC(=O)C(c2ccc(Cl)cc2)C(C)C)cn1 (centres undefined),inactive: -1.05%,–
O=[N+]([O-])c1nn(-c2ccc3c(c2)OCCO3)n(O)c1=Nc1ccc(Cl)cc1,inactive: 20.9%,–
CC1CC(C)C(=O)C(C(CC2CC(=O)NC(=O)C2)OC(=O)CC(=O)c2ccccc2)C1 (centres undefined),inactive: -10.7%,–
CC(Nc1nc(N2CCN(CCO)CC2)nc2ccccc12)c1ccccc1 (centres undefined),inactive: -23.6%,–
COc1ccc(/C(O)=C2/C(=O)C(=O)N(CCCN3CCOCC3)C2c2ccc(N(C)C)cc2)cc1 (centres undefined),inactive: 3.67%,–
Cc1cc(=O)oc2cc(O)c(N=Nc3ccccc3)cc12,inactive: -10.3%,–
Cc1ccc(CN=c2c([N+](=O)[O-])nn(-c3ccc4c(c3)OCCO4)n2O)cc1,inactive: 14%,–
COc1ccc(Cn2ccnc2SCC(=O)NC2CCCC2)cc1,inactive: 4.25%,–
O=C(c1ccc([N+](=O)[O-])o1)N1CCc2ccccc21,inactive: 7.1%,–
CN(C(=O)c1cccc(NC(=O)Cc2ccc(NC(=O)C3CCN(C(=O)c4ccccc4)CC3)cc2)c1)C1CC1,inactive: 1.58%,–
CC(=O)OCCSc1c(-c2ccccc2)c2cc(Cl)ccc2[nH]c1=O,inactive: 8.14%,–
COc1cc(/C=C/c2ccc3cccc(OC)c3n2)c(O)c([N+](=O)[O-])c1,inactive: -0.206%,–
O=C(NCC1CCN(Cc2ccccc2F)CC1)Nc1ccccc1F,inactive: 0.581%,–
Cc1ccc2c(c1)c1nc3ccccc3nc1n2C,inactive: -4.9%,–
CCS(=O)(=O)N1Cc2ccccc2CC1C(=O)Nc1ccccc1OC (centres undefined),inactive: 13.5%,–
Cc1ccc(Nc2cc(C)nc3c(C)ccc([N+](=O)[O-])c23)cc1,inactive: 10.4%,–
O=C(Nc1ccc2oc(-c3ccncc3)nc2c1)c1ccc([N+](=O)[O-])o1,–,active: 16.5 µM
O=c1c([N+](=O)[O-])cc(C(F)(F)F)cn1Cc1cccc(Cl)c1,inactive: -7.8%,–
O=C1c2ccc3c4c(ccc(c24)C(=O)N1CCCCO)C(=O)N(CCCCO)C3=O,–,active: 4.14 µM
CN(Cc1ccccc1)C(=O)c1ccc(NC(=O)Cc2cccc(NC(=O)C3CCN(C(=O)C4CC4)CC3)c2)cc1,inactive: -0.472%,–

SMILES,"activity change, negative = cytotoxicity",Potency
Cc1ccc(-c2c(C(=O)N/N=C/C3CC=CCC3)nnn2-c2nonc2N)cc1 (centres undefined),inactive: 0.041%,–
COc1ccc(C(CNC(=O)c2oc3cc(Br)ccc3c2C)N2CCCCC2)cc1 (centres undefined),inactive: -8.83%,–
Cc1ccc([C@@H]2CC=C(C(=O)O)[C@H](c3cccc(Cl)c3)N2S(=O)(=O)c2ccc(C)cc2)cc1,inactive: 3.04%,–
O=C(O)c1cccc(NC(=S)NC(NC(=O)c2ccccc2[N+](=O)[O-])C(Cl)(Cl)Cl)c1 (centres undefined),inactive: 5.99%,–
Cc1cnc([N+](=O)[O-])n1CCOC(=O)NC(=O)c1ccc(F)cc1,inactive: -4.24%,–
CC(NC(=O)C12CC3CC(CC(C3)C1)C2)C(=O)NN=Cc1ccc([N+](=O)[O-])o1 (centres undefined),inactive: -23.4%,–
O=C(O)c1cc(Cl)c(Cl)cc1C(=O)N1CCCC1,inactive: 16.5%,–
COc1cccc(CNCc2cccc(Br)c2)c1OC,inactive: -14.9%,–
CC(C)C(=O)NC(=S)Nc1ccc(S(=O)(=O)N2CCCC2)cc1,inactive: 2.66%,–
Cc1cc(C(=O)COc2cccnc2[N+](=O)[O-])c(C)n1-c1ccccc1F,inactive: 6.02%,–
Cc1ncc([N+](=O)[O-])n1CCO,–,inactive
COc1ccc(NS(=O)(=O)c2ccc(S(=O)(=O)N(C)C)cc2)cc1S(N)(=O)=O,inactive: -5.52%,–
COc1ccc(N(Cc2ccccc2)C(=O)OC(C)(C)C)c(C(=O)N(C)OC)c1,inactive: 1.61%,–
COc1cc(/C=C2\COC/C(=C\c3cc(OC)c(OC)c(OC)c3)C2=O)cc(OC)c1OC,–,active: 2.33 µM
CCc1cc(=O)oc2cc(C)cc(OCC(=O)NC3CCN(Cc4ccccc4)CC3)c12,inactive: 4.04%,–
COc1ccc(CNC(=O)COc2cccnc2[N+](=O)[O-])cc1OC,inactive: 6.39%,–
O=C(NCc1ccco1)NC(=O)c1csc([N+](=O)[O-])c1,inactive: 10.6%,–
Cc1cc(C(=O)CCC(=O)NC(C)c2ccc(S(N)(=O)=O)cc2)c(C)s1 (centres undefined),inactive: 2.81%,–
CCOC(=O)c1nc(C(=O)NCc2ccc(C)cc2)nc2ccccc12,inactive: 18.3%,–
Cc1ccc(C(=O)c2c3ccc([N+](=O)[O-])cc3[n+]([O-])n2CCCC(N)=O)cc1,inactive: -12.8%,–
CCn1cc(C(=O)NCCC(C)C)c(=O)c2cc(F)c(N3CCN(C(=O)c4ccco4)CC3)cc21,inactive: -29.2%,–
O=[N+]([O-])c1ccc(-c2nc(C(Cl)Cl)c3ccccc3n2)cc1,inactive: 16.9%,–
O=C(O)C1CCN(c2ccc([N+](=O)[O-])cc2[N+](=O)[O-])CC1,inactive: 14.6%,–
CCCSc1nc2c(c(=O)n1CC)SC(C)C2 (centres undefined),inactive: 1.45%,–

# Reference: PubChem BioAssay AID588382 (National Center for Advancing Translational Sciences (NCATS), 2011)
